# According to PubChem BioAssay AID1508642 (National Center for Advancing Translational Sciences (NCATS), 2021):
# Screen size: about 43,000 compounds; about 200 (0.47%) were called active. Inconclusive results (about 12%) are left out. Calls follow the shape of the dose curve; as a rule, active = well fitted cell-killing curve with a large enough effect; inconclusive = small, poorly fitted or top-dose-only effect, or effect the other way; inactive = flat fitted curve, though single readings scatter. The list shows a part of the results.
# Assay: Cell viability qHTS assay in S16 Pmp22-F2sN cells; also: nearly all actives have a fitted effect of over 65% in size
# Conditions: S16 Pmp22-F2sN Schwann cells (luciferase reporters placed in the Pmp22 gene) viability, CellTiter-Glo, 24 h; series mostly up to 57.5 µM; activity change, negative = cytotoxicity: at the top concentration
# Procedure, shortened: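 S16 Schwann cells carrying the Pmp22-F2sN reporter, seeded in 1536-well format, were exposed to library compounds for 24 h at 37C. Viability was read as CellTiter-Glo luminescence after 15 min at room temperature.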
# % is scaled to controls: 0 for no effect and ±100 for the full control effect.
row,SMILES,"activity change, negative = cytotoxicity"
1,O=C(c1cc(-c2ccc(Br)cc2)n[nH]1)N1CCN(S(=O)(=O)c2ccc(Br)cc2)CC1,inactive: -6.13%
2,COC(=O)CSc1nc2c(cnn2-c2ccc(F)cc2)c(=O)[nH]1,inactive: -2.55%
3,O=C(Cn1ccn(-c2ccc(F)cc2)c(=O)c1=O)NCCc1ccccc1,inactive: 9.41%
4,CC(=O)N1c2ccc(S(=O)(=O)N3CCN(c4ccc(C)cc4C)CC3)cc2CC1C (stereo unspecified),inactive: -16.3%
5,CCOc1ccc(N(c2nc(-c3ccc(OC)c(OC)c3)no2)c2nc(-c3ccc(OC)c(OC)c3)no2)cc1,inactive: 14.6%
6,COc1ccccc1N(CC(=O)NCCSCc1ccccc1Cl)S(C)(=O)=O,inactive: 1.24%
7,CCOC(=O)c1cnc2ccc(C)cc2c1Nc1ccc(OCc2ccccc2Cl)cc1,inactive: -28.6%
8,Cc1ccc(OCC(=O)Nc2ccc3nc(SCC(=O)N4CCCC4)sc3c2)cc1,inactive: 10.5%
9,O=C(CSc1nc2cc(C(=O)NC3CCCC3)ccc2c(=O)n1CC1CCCO1)c1ccc(F)cc1 (stereo unspecified),inactive: 8.02%
10,Cc1ccc(C)c(S(=O)(=O)c2cn(Cc3ccccc3)c3cc(F)c(F)cc3c2=O)c1,inactive: 0.74%
11,CNC(=O)c1ccc2c(c1)N=C(C)c1cc(C)ccc1S2,inactive: -7.35%
12,COc1ccc2oc(-c3ccc(C)c(NC(=O)c4cccnc4)c3)nc2c1,inactive: -3.31%
13,COc1cc(OC)c(NC(=O)CSc2nccn2C)cc1Cl,inactive: 21.8%
14,CC1CCN(c2oc(-c3cccs3)nc2S(=O)(=O)c2ccc(Cl)cc2)CC1,inactive: -17.4%
15,Cc1ccc(CNC(=O)c2ccc(-n3c(C)cc4c3CCCC4)cc2)cc1,inactive: -0.962%
16,CC(C)(C)C1CCc2oc3ccc(NS(=O)(=O)c4cc(Cl)ccc4Cl)cc3c2C1 (stereo unspecified),inactive: -4.21%
17,CCCC(=O)OC1=CN(Cc2ccccc2)S(=O)(=O)c2ccccc21,inactive: 2.58%
18,O=C(Cn1cc(SCc2cccc(F)c2)c2ccccc21)N1CCOCC1,inactive: 0.344%
19,CCOC(=O)c1c(SCC(=O)Nc2nc3ccc(C)cc3s2)nc(=O)[nH]c1C,inactive: 5.19%
20,Cc1cccc(C(=O)Nc2nc3c(s2)CCCC3)c1,inactive: -19.1%
21,c1ccc(CNc2ncnc3[nH]ncc23)cc1,inactive: -14.6%
22,CCOC(=O)N1CCc2c(sc3c2c(=O)n(CCc2ccccc2)c(=O)n3Cc2ccc(C)cc2C)C1,inactive: 15.4%
23,COc1ccc(-c2nc(CCNC(=O)Cc3ccc(F)cc3)cs2)cc1,inactive: -1.54%
24,Cc1cccc(N2CCN(C(=O)CCNS(=O)(=O)c3ccc4c(c3)CCN4C(=O)C3CC3)CC2C)c1 (stereo unspecified),inactive: -21.1%

row,SMILES,"activity change, negative = cytotoxicity"
1,O=C(NC1CC(=O)N(c2ccccc2)C1)c1cccs1 (stereo unspecified),inactive: 7.21%
2,CCc1ccccc1NC(=O)N1CC(CC)Oc2ccc(Cl)cc21 (stereo unspecified),inactive: -9.87%
3,CSc1ccc(CCNC(=O)c2ccc3c(c2)nc2n3CCC(C)C2)cc1 (stereo unspecified),inactive: 17.1%
4,CCOCCc1nn2c(=O)cc(COC(=O)c3ccccc3NC(=O)c3cccs3)nc2s1,inactive: 5.29%
5,COc1ccc(-c2nc3c(c(SCC(=O)Nc4cc(C)cc(C)c4)n2)Cc2c(CO)cnc(C)c2O3)cc1,inactive: 14.3%
6,COc1cccc(CN2C(=O)C3(SCC(=O)N3c3ccc(F)cc3)c3ccccc32)c1 (stereo unspecified),inactive: -11.8%
7,O=C(C1CCCN(S(=O)(=O)c2cccs2)C1)N1CCN(c2ccccc2F)CC1 (stereo unspecified),inactive: -2.79%
8,CN1C(=O)c2ccccc2Sc2ccc(NC(=O)NCc3ccccc3Br)cc21,inactive: -18.3%
9,Cc1ccc(CN(Cc2cccn2-c2nnc(N3CCCC3=O)s2)C(=O)Nc2cc(C)cc(C)c2)cc1,inactive: 0.14%
10,Cc1nc2sc(C)c(C)n2c(=O)c1S(=O)(=O)NCCc1ccc(Cl)cc1,inactive: -0.563%
11,O=C(NCc1cccc(Cl)c1)c1ccc2c(c1)nc1n2CCOC1,inactive: -1.23%
12,CC(=O)c1ccc(NC(=O)c2cn(C)c(=O)c3ccccc23)cc1,inactive: 10.6%
13,Cc1ccc(CN(Cc2ccco2)C(=O)c2ccccc2Cl)o1,inactive: 3.9%
14,Fc1ccc(-c2nnc(CN3CCN(c4ccccn4)CC3)o2)cc1,inactive: 5.31%
15,COc1ccc(C(=O)c2cn(Cc3ccc(F)cc3)c3c(F)cc(F)cc3c2=O)cc1,inactive: 5.45%
16,O=C(C1COc2cc(S(=O)(=O)Nc3ccc(Cl)cc3)ccc2O1)N1CCCC1 (stereo unspecified),inactive: 5.78%
17,CCc1ccc(S(=O)(=O)c2nnn3c2nc(N2CCN(CC)CC2)c2sccc23)cc1,inactive: 5.05%
18,CCOC(=O)c1ccc(N2C(=O)c3n[nH]c(-c4ccco4)c3C2c2cccc(F)c2)cc1 (stereo unspecified),inactive: 0.937%
19,Cc1ccc(NC(=O)CSc2nc3ccc(NC(=O)c4cccc(Cl)c4)cc3s2)c(C)c1,inactive: 24.7%
20,COc1ccccc1C(=O)Nc1ccc(-c2nc3cc(C)cc(C)c3o2)cc1,inactive: 12.4%
21,CCc1ccccc1N(C)C(=O)c1cc2c(s1)-c1c(C)cccc1OC2,inactive: 9.5%
22,Cc1ccc(Cn2c(C)c(CNCc3ccccc3F)c(C(=O)O)c2C)cc1,inactive: 3.86%
23,O=C(Cn1ncc2c3ccccc3n(Cc3ccccc3)c2c1=O)NCc1ccccc1,inactive: 7.37%
24,CC(C)NS(=O)(=O)c1ccc(OCC(=O)N2CCN(c3cccc(Cl)c3)CC2)cc1,inactive: 0.317%

row,SMILES,"activity change, negative = cytotoxicity"
1,COc1cc(C2C(C(=O)Nc3ccccc3)=C(C)Nc3nc(SCC(=O)c4ccc(C)cc4)nn32)ccc1O (stereo unspecified),inactive: 4.61%
2,CCc1ccccc1NC(=O)C1=CC(c2ccc3c(c2)OCO3)=NS(=O)(=O)N1C,inactive: -0.897%
3,COc1ccccc1C(=O)CC1(O)C(=O)N(CC(N)=O)c2ccccc21 (stereo unspecified),inactive: 3.54%
4,CCC(=O)N1CCc2cc(S(=O)(=O)NC(Cc3ccccc3)C(=O)Nc3ccc(Cl)cc3)ccc21 (stereo unspecified),inactive: -14.7%
5,COc1ccccc1C(=O)N1CCC(c2c[nH]c3ccccc23)(c2c[nH]c3ccccc23)CC1,inactive: -2.87%
6,O=C(CSc1nc(-c2ccccc2)[nH]c1-c1ccc(F)cc1)NC1CCCC1,inactive: -18%
7,CCCC(=O)Nc1c(C(=O)N2CCN(c3ccccc3)CC2)oc2ccccc12,inactive: -0.714%
8,CC(C)c1ccc(S(=O)(=O)Nc2cc3c(cc2NCc2ccccc2)n(C)c(=O)n3C)cc1,inactive: -24.9%
9,O=C(CN1C(=O)COc2ccc(S(=O)(=O)N3CCCCCC3)cc21)N1CCN(c2cccc(Cl)c2)CC1,inactive: 13%
10,CC(C)(C)OC(=O)N1CCC(c2c(C(=O)O)cnn2-c2ccc(F)cc2F)CC1,inactive: 1.08%
11,CCN1CCN(C(c2ccc(Cl)cc2)c2c(O)cc(C)n(CCOC)c2=O)CC1 (stereo unspecified),inactive: -0.137%
12,O=C(CSc1ncc(S(=O)(=O)c2ccc(Br)cc2)c(=O)[nH]1)NCc1ccccc1Cl,inactive: -6.38%
13,Cc1nc2ncnn2c(C)c1CCC(=O)NCc1ccc(Cl)cc1,inactive: 2.45%
14,Cc1ccc(OCCSc2nc3ccccc3n2CCC(=O)O)cc1C,inactive: 6.87%
15,CCOc1ccc(NC(=O)NC(CC)Cn2nnc3ccccc3c2=O)cc1 (stereo unspecified),inactive: 0.614%
16,COc1ccc(/C=C(\NC(=O)c2ccccc2)C(=O)NC2CCCCC2)cc1,inactive: -1.75%
17,CCCCn1cnc2cc(NC(=O)c3cc(OC)c(OC)c(OC)c3)ccc21,inactive: -0.268%
18,Cc1cc(C)cc(N(CC(=O)Nc2ccc(C(F)(F)F)cc2)S(=O)(=O)c2c(C)[nH]c(=O)[nH]c2=O)c1,inactive: 3.74%
19,COc1ccc(-c2cc(C(=O)Oc3ccc(Cl)cc3)c3ccccc3n2)cc1,inactive: -12.7%
20,Cc1cccc(C)c1NC(=O)C1CCN(S(=O)(=O)c2cccc3nsnc23)CC1,inactive: 13.9%
21,COc1cc(Cl)c(C)cc1NC(=O)CSCc1nc(-c2ccc(OC)c(OC)c2)no1,inactive: 7.38%
22,Cn1c(NCc2ccccc2F)nc2ccccc21,inactive: 12.2%
23,Cc1ccc(C)c(Cn2cc(CCC(=O)NC3CCCCC3)c3ccccc32)c1,inactive: 18.3%
24,Cc1ccc(-n2ncc3c(Nc4ccc5c(c4)OCCO5)ncnc32)cc1C,inactive: -5.04%

row,SMILES,"activity change, negative = cytotoxicity"
1,COc1ccc(CNC(=O)c2cnn(-c3ccc(C)cc3)c2C2CCN(C(=O)OC(C)(C)C)CC2)cc1,inactive: -6.38%
2,Cc1ccc(NC(=O)Cn2ccn(Cc3ccc(Cl)cc3)c(=O)c2=O)cc1C,inactive: -0.615%
3,CCOC(=O)C1CCN(C(=O)c2ccc3c(c2)sc2nc(-c4ccc(OCC)cc4)cn23)CC1,inactive: 8.55%
4,COc1ccc(-c2nc(SCC(=O)NC3CCCC3)c(-c3ccccc3)[nH]2)cc1OC,inactive: -1.65%
5,CC(=O)c1cccc(-n2c(CCC(=O)O)ccc2-c2ccccc2)c1,inactive: 22.6%
6,COc1ccc(OC)c(Nc2cc(C(=O)NCc3ccccc3)c3ccccc3n2)c1,inactive: 13.8%
7,Cc1ccc(NC(=O)CC2Sc3ccccc3NC2=O)c(C)c1 (stereo unspecified),inactive: -0.605%
8,CCOC(=O)c1ccc(-c2ccc(/C=C(\C#N)C(=O)Nc3cccc(C)c3)o2)cc1,inactive: 3.3%
9,C=Cc1ccc(CSc2nc(-c3ccc(Cl)cc3)nc3c2Cc2c(CO)cnc(C)c2O3)cc1,inactive: 6.26%
10,CCN1C(C(=O)c2ccccc2)=C(OC(=O)c2ccc(Cl)cc2)c2ccccc2S1(=O)=O,inactive: -7.21%
11,CCc1ccc2oc(-c3cccc(NC(=O)c4ccc(-c5cccc([N+](=O)[O-])c5)o4)c3)nc2c1,inactive: 27.6%
12,CCOc1ccc(Br)cc1C1C(C(=O)Nc2ccccc2OC)=C(C)Nc2nnnn21 (stereo unspecified),inactive: -7.02%
13,Cc1cccc(OC(C)C(=O)N2CCC(c3nc4ccccc4o3)CC2)c1C (stereo unspecified),inactive: -1.83%
14,CCOc1ccc(NCc2cccn2-c2nnc(N3CCC(C(=O)NC(C)c4ccccc4)CC3)s2)cc1 (stereo unspecified),inactive: -29.2%
15,COc1ccc(-c2cc(C(F)(F)F)nc(NCc3ccccc3)n2)cc1OC,inactive: 22.1%
16,COc1cccc(CN2c3ccccc3-c3nc(SCC(=O)Nc4cccc(C)c4)ncc3S2(=O)=O)c1,inactive: 11.5%
17,CC1CCc2c(sc3nnn(CC(=O)Nc4cccc(C(F)(F)F)c4)c(=O)c23)C1 (stereo unspecified),inactive: -2.5%
18,COc1ccc(-n2c(=O)c3c4c(sc3n(Cc3ccccc3)c2=O)CCC4)c(OC)c1,inactive: -16.1%
19,CCn1c(=O)c(=O)n(CC)c2cc(N3CCCCC3)c(NC(=O)c3cccc(OC)c3)cc21,inactive: 14.8%
20,Cc1oc(-c2ccc(C(=O)N(C)Cc3ccccc3)cc2)nc1CN1CCc2ccccc21,inactive: -4.93%
21,CCOC(=O)c1cccc(NC(=O)N2Cc3ccccc3Oc3ncccc32)c1,inactive: -2.98%
22,CC(=O)N1c2ccc(S(=O)(=O)NCCc3cccc(C)c3)cc2CC1C (stereo unspecified),inactive: -9.11%
23,COc1ccc(N2CCN(CC(O)COc3ccc(C)c(C)c3)CC2)cc1 (stereo unspecified),inactive: -1.91%
24,CCOc1cccc(NC(=O)CSc2ncc(-c3ccc(Cl)cc3)[nH]2)c1,inactive: 3.29%
